# Test results taken from the supplement of paper PMC3334620.
# Over roughly 33,000 sequences, “E-score (-0.5 to 0.5)” has its median near -0.012; the highest 2% begin near 0.27. Some of the results follow.
# Molecular target: T1, Vhr1 (UniProt P40522)
# T1 sequence: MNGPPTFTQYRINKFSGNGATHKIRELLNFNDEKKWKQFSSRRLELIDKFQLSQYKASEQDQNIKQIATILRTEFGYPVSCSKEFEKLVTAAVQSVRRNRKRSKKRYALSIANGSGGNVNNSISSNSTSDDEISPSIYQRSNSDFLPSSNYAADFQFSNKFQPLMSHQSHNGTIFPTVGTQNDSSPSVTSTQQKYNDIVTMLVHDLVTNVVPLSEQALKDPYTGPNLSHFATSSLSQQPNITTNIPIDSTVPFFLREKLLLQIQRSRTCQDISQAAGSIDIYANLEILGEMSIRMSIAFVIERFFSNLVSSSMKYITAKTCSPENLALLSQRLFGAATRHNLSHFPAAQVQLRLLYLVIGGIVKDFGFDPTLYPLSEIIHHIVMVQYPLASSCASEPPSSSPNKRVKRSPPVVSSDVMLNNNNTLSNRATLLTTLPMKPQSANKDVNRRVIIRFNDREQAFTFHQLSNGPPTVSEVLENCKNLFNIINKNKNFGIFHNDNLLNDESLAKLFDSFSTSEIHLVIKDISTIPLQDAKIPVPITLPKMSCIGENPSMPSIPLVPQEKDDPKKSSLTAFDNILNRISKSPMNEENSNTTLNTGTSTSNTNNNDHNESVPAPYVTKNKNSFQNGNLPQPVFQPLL
# Test: PBM E-score (8-mer binding enrichment) (E-score (-0.5 to 0.5)); higher = stronger / more preferred TF binding; most listed sequences are background and not binding sites
# Conditions: protein concentration: 200 nM; construct: GST-full length
# How it was run: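 For each ungapped eight-base word taken together with its reverse complement, the Universal PBM Analysis Suite assigned an E-score. Binding data came from GST-tagged yeast transcription factors, applied at about 100-200 nM, on universal all-10-mer Agilent arrays made double-stranded by primer extension. Fluorescent anti-GST marked bound protein, and scans were normalised with masliner.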
row,Sequence,PBM E-score
1,ACAGAATA,0.0685
2,GAATACAC,0.127
3,CATGGGCA,0.177
4,GTGCAGCA,0.0483
5,AATTCACG,-0.0883
6,CCCGTGGC,-0.00381
7,GCCACCTA,-0.0979
8,AATCCAAA,-0.136
9,ACATTACC,-0.105
10,ACGTAGCC,-0.295
11,ATTTAAGA,-0.236
12,GGGCTTAC,-0.00595
13,AAGGTGTG,0.124
14,CCCCTCAA,-0.183
15,GTACCCCA,0.129
16,CTACGTCC,-0.204
17,ACAGGGCT,-0.0894
18,CCGGGGAC,-0.0397
19,GTCTATCA,0.104
20,ACAGGAAA,0.018
21,ACCTCGAA,-0.0863
22,ACATGATA,0.178
23,ATTAGCCA,0.194
24,AACTAACA,0.129
25,AATATCCG,0.0216

row,Sequence,PBM E-score
1,GTCAGTAA,-0.0359
2,ACCGGAAG,0.0351
3,AGAGCTAT,-0.2
4,CATCCCTA,-0.0594
5,CCTACTGC,-0.197
6,GTCTACAC,0.082
7,CCCTATCA,0.0115
8,ACAATTGT,0.0553
9,ACCTATGA,0.128
10,AGTAACCA,0.0676
11,AACCACTC,0.193
12,CGAGCGAC,0.0407
13,AAGCATCT,-0.0662
14,AACATCCC,-0.0107
15,GGGACGCA,-0.159
16,AAGTAGGG,-0.0126
17,CAACCTAC,0.0933
18,AACTTTTC,-0.173
19,AGGGCCGG,-0.111
20,AACTGGGC,-0.165
21,CGCTCTAG,-0.106
22,CAGGACGA,0.0237
23,AGGTTCCC,-0.142
24,AAACTGCA,-0.166
25,CAGTATTA,0.17

row,Sequence,PBM E-score
1,ACGAGAAT,0.0416
2,AATTGACC,-0.132
3,CGCACTAG,0.0106
4,CTATCCCC,-0.055
5,CTTTCCAA,-0.0715
6,AAGCACAT,0.0653
7,AACTCGGA,0.0616
8,AGACGTCA,0.00677
9,AAGTTTGA,-0.11
10,CACGAGCC,0.0419
11,ACGTCCGA,-0.111
12,AGTCTTAC,0.201
13,AGCTTGCA,-0.207
14,AAGATGTC,-0.134
15,AATCGTGT,0.0868
16,CGGCAGCC,0.282
17,AATCTTAC,0.156
18,AGTCCATA,0.0368
19,GATCCGAC,-0.0599
20,ACTCGGCT,0.0351
21,CATGGTGG,0.0917
22,CGTATTCC,-0.0165
23,GCAGACCC,-0.126
24,AATCCCGG,0.0437
25,GGCAGCAA,-0.113

row,Sequence,PBM E-score
1,ATGCGACA,0.0864
2,ACACCCTC,0.116
3,GGCCGGCC,0.0167
4,GCGAACGA,0.0882
5,CTTCTGCA,-0.194
6,CTCCAGGC,-0.149
7,CTTGCGGC,-0.0654
8,AACGCACG,0.178
9,GAATCTGA,-0.12
10,TCACACAA,0.123
11,ACAATTTA,0.0136
12,AGATACCA,0.229
13,AGCGGAAA,-0.134
14,ACTCTCAT,0.027
15,CCATGTAA,0.098
16,GGCTGTCA,-0.267
17,ACAGGGAG,0.012
18,CCGAACTC,-0.0227
19,AGTGCAGG,0.0364
20,TCAGGCCA,0.0201
21,AGTGTTAG,0.191
22,AGTCATTG,0.389
23,CCACGGCA,-0.0546
24,TAAGGCAA,-0.179
25,ATACCTTA,-0.154

row,Sequence,PBM E-score
1,ACCCGACG,-0.038
2,CATAGGAG,0.0874
3,ACTAACCA,0.208
4,GCGCCTAA,-0.0189
5,AGAGATTA,0.0577
6,AGGGGGAG,-0.127
7,AGCCGTTG,-0.154
8,ACTGAAGA,-0.0785
9,ATCTGAAT,0.214
10,CCCGGCGC,0.0263
11,CCGTTGCC,-0.206
12,CACCGAAA,0.141
13,CTCACAGC,0.0806
14,ACCAATTG,-0.136
15,ATCTGCGG,0.0146
16,AAATCCTA,-0.112
17,AGAACCGG,-0.00656
18,ACGCCTCC,-0.156
19,ATCCCCAG,-0.169
20,AGCAACCG,0.0071
21,CATCAGGG,-0.0314
22,AACGGGCT,-0.119
23,GGTGATTA,0.285
24,ACCCTCCA,0.0774
25,AATCGGCC,-0.0517

row,Sequence,PBM E-score
1,CCGATCCA,0.0419
2,AAAGTTTC,-0.187
3,GAGTCGCA,0.391
4,CAGGTGAG,0.0612
5,GGCAATGA,0.0747
6,CACGCTGG,0.115
7,CAAGTACA,0.0134
8,CTGACTTC,0.195
9,GGCCCCAC,-0.185
10,AAGGATTA,-0.0995
11,GTACATTA,-0.11
12,AGGTTGAC,0.155
13,AACTTGCG,-0.0563
14,ATCAGACA,0.0842
15,CTAGTTAC,-0.025
16,CCTTCTCC,-0.175
17,CCAACGTC,0.0107
18,CTCAATTA,0.0871
19,CGACACGA,0.233
20,AACGAAGC,-0.0946
21,ACCTGCAT,0.0681
22,CTAATAAG,-0.142
23,ATCCTCAT,0.0301
24,AGGCAGTC,0.125
25,GGTCCGCA,-0.066

row,Sequence,PBM E-score
1,AAACCTGT,-0.0542
2,ACTAGCAT,0.099
3,ACATATTC,0.0778
4,CAGACGGA,-0.0574
5,CGCATACC,0.059
6,AAGGCATG,-0.0217
7,AGGCGTAA,-0.00992
8,GTAGCATA,0.079
9,TTAAAAAA,-0.192
10,ACCCCGTG,0.169
11,CGTAATAC,0.088
12,CCGCTGGA,-0.0416
13,ATTATTCG,-0.0568
14,GTAAGGAA,-0.216
15,CGAGCGAG,0.262
16,GTCAAACA,-0.116
17,CCCATGGC,0.142
18,AATTTGCA,-0.296
19,GCGTAACA,-0.0483
20,AGTTTGTG,-0.0128
21,CTCATGAA,0.0223
22,ATAAACAA,0.115
